From patent publication US20220411514A1, “ANTI-GAL3 ANTIBODIES AND METHODS OF USE FOR INSULIN RESISTANCE” (TrueBinding, Inc., priority 2021, published 2022)
“Also recorded” adds a separate entry of the source.

What was measured:
[1] = tested on: GLUT4 translocation in L6 GLUT4myc myoblasts; assay: Insulin-stimulated GLUT4 translocation with Gal3 and anti-Gal3 antibody; assay type: cell-based, rat; details: 30 μg/mL Gal3 pre-incubated with 60 μg/mL antibody, 100 nM insulin
Experimental: Rat L6 GLUT4myc myoblasts (Kerafast #ESK202-FP) express a Myc-tagged GLUT4 that can be detected with an anti-Myc antibody. These cells were grown in a 48-well plate in MEM u growth media (Gibco, #12-571-063)+10% fetal bovine serum (FBS; Corning #35-016-CV) until 90-95% confluence was reached. Cells were then washed in PBS and serum starved for 2 hours in MEM u growth media without FBS. Thirty (30) μg/mL recombinant human Gal3 (TrueBinding QCB200347) was pre-incubated with 60 μg/mL anti-Gal3 antibodies for 30 minutes before being added to the serum-starved cells for 1 hour at 37° C. At the end of incubation, half of the cells were treated with 100 nM insulin (Sigma-Aldrich #I5523-50MG) for 20 minutes while the other half acted as basal controls. After 20 minutes, cells were washed quickly with ice cold PBS twice, then incubated with 4% paraformaldehyde (Boster Bio #AR1068) for 10 minutes on ice followed by 10 minutes at room temperature. The cells were washed three times with PBS, then blocked with 0.5 mL 5% goat serum (Vector Laboratories #101098-382) in PBS for 15 minutes. After the blocking agent was aspirated from the cells, 1 μg/ml anti-Myc polyclonal antibody (Sigma-Aldrich #C-3956) in 5% goat serum was added for 1 hour. […] Primary antibody was aspirated away, and then cells washed 5 times with PBS. Next, cells (including background controls) were incubated with 1:1000 goat anti rabbit antibody secondary antibody (Abcam #Ab97051) in 5% Goat serum for 30 minutes at room temperature. After washing, cells were incubated with 400 μL of TMB (Thermo Scientific #PI34029) for 5 minutes, then 200 μL of 1N HCL (Avantor Performance #JT5620-2) was added to stop the reaction. 100 μL of the sample was transferred to a 96 well plate with duplicates transferred for each condition. Samples were read at 450 nm on a SpectraMax plate reader. […] The fold changes were plotted on GraphPad Prism and presented as mean (SEM) of the technical replicates. Statistical significance was determined using unpaired T-tests comparing samples treated with Gal3 and insulin with all other conditions.

[2] = tested on: HFD-fed Bks-db (db/db) mice; assay: HFD-fed db/db mouse model of advanced type II diabetes
Human Gal3 peptides = biological target: T1, Human Gal3 peptides (Homo sapiens, UniProt P17931); assay: Gal3 peptide binding ELISA (Example 8); details: antibody 5 μg/mL
T1 construct: purchased LifeTein custom order
Outline: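 Plates coated overnight at 4 °C with human Gal3 peptides (at least 100 μg/mL) or Gal3 protein (1 μg/mL) in PBS, then blocked with 2% BSA/PBST. Antibodies as hIgG4 (S228P) at 5 μg/mL, 1 h at room temperature. Detection by HRP anti-human IgG F(ab′)2 and TMB, absorbance at 450 nm.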

[3] = tested on: C57BL6/J mice injected with mouse Gal3; assay: Gal3-induced glucose intolerance in mice; assay type: in vivo; details: 0.3 mg/kg mouse Gal3 with 30 mg/kg antibody i.p., 0-120 minutes
Experimental: FIG. 49A depicts a schematic for testing the effects of anti-Gal3 antibody administration on Gal3-mediated glucose intolerance in vivo in mice. […] Blood was collected from the mice at 0, 30, 60, 90, and 120 minutes after the glucose injection for blood glucose measurement.

[4] = tested on: high fat diet (HFD) fed C57BL6J mice; assay: High fat diet fed mouse model of type II diabetes; assay type: in vivo
Text: To evaluate whether Gal3-INSR blockade by Gal3-targeted antibodies functionally impacted diabetes biology, a mouse model of type II diabetes was employed. Male C57BL6J mice were purchased from Jackson Lab and fed with high fat diet (HFD, 60% kcal from fat, Research Diet, Catalog #12492i) starting from 7-week old for 8 weeks, 10 or 16 weeks. Age-matched male C57BL6J mice fed with standard chow diet were used as control mice. […] Mice were fed with standard chow diet or HFD ad libitum except when fasted as indicated in the experiments. Glucose tolerance test (GTT) and insulin tolerance test (ITT) were done at 15 weeks and 16 weeks old (8 weeks and 9 weeks after HFD), respectively, to confirm the insulin resistant and glucose intolerant phenotype. For GTT, mice were fasted for 6 hours by transferring mice to clean cage with no food or faeces but with drinking water and then injected with 2 g/kg glucose (Sigma) and blood was drawn to measure glucose levels at 0, 15, 30, 60, 90, and 120 minutes after glucose injection. For ITT, mice were fasted for 6 hours, and then injected with 0.75 IU/kg body weight of Humalin-R (Eli Lilly) intraperitoneally. Blood from the tail was measured for glucose content using HemoCue Glucose 201 Analyzer at 0, 15, 30, 45, 60 minutes. Based on area under the curve (AUC) from ITT, HFD fed mice were randomized into two groups: human IgG4 isotype group and IMT001-4 treated group. At 17 weeks of age, mice were given antibody treatments by intraperitoneal injection twice a week for 5 doses before ITT and GTT were done at 19 weeks old and 20 weeks old. Human IgG4 isotype and IMT001-4 were dosed at 10 mg/kg with 100 μl/mouse and BM was dosed at 10 mg/ml with 100 μl/mouse. Treatments continued until the mice were sacked at 21 weeks old. The mice body weight was monitored one week after the mice arrived at the facility. Body weight was measured once a week using a balance. Mouse blood was collected using cardiac puncture. Liver, gastrocnemius muscle, and posterior subcutaneous white adipose fat were collected and weighed.
To further evaluate the ability of IMT001-4 to impact the pathological sequalae of diabetes, liver sections from animals treated as in FIGS. 3-5 were examined for signs of fat accumulation, e.g., steatosis. Briefly, liver specimens were fixed in 4% paraformaldehyde for 24 hours, placed in 70% EtOH for 3 days, embedded into paraffin and 10 μm sections were cut and mounted to glass slides and stained with hematoxylin and eosin and visualized on a Revolve microscope at 40× magnification. Images were evaluated by ImageJ to quantitate the extent of steatosis.
To further characterize the liver disease observed in histological samples, serum markers of liver dysfunction were evaluated in animals treated as above by ELISA. Briefly, mouse plasma samples were obtained from whole blood sample in lithium heparin collection tubes. 100 μl of serum was dispensed into the rotor of a VetScan VS2 Blood Chemistry Analyzer (Abaxis) through the sample port. ALT levels were determined as per the manufacturer's specification. […] Accordingly, the Gal3-targeted Gal3-INSR blocking antibody, IMT001-4, has utility in reducing serum liver enzymes.

[5] = tested on: DSS-treated C57BL/6J mice; assay: DSS-induced chronic inflammatory bowel disease mouse model; assay type: in vivo; details: 3% DSS mice

B1: TB001: humanized anti-Gal3 antibody derived from mouse mAb, hIgG4 backbone (antibody)
heavy: QVQLVQSGSELKKPGASVKVSCKASGYTFTNYGMNWVRQAPGQGLKWMGWINTNTGEPTYVEEFTGRFVFSLETSVSTAYLQISSLKAEDTAVYFCAPYDNFFAYWGQGTTVTVSSASTKGPSVFPLAPCSRSTSESTAALGCLVKDYFPEPVTVSWNSGALTSGVHTFPAVLQSSGLYSLSSVVTVPSSSLGTKTYTCNVDHKPSNTKVDKRV[in this place human IgG4 Fc with S228P (EU numbers)]
light: DIVLTQSPLSLPVTPGEPASISCRSSKSLLYKDGKTYLNWFLQKPGQSPQLLIYLMSTHASGVPDRFSGSGSGTDFTLKISRVEAEDVGVYYCQQLVDYPLTFGGGTKLEIKRTVAAPSVFIFPPSDEQLKSGTASVVCLLNNFYPREAKVQWKVDNALQSGNSQESVTEQDSKDSTYSLSSTLTLSKADYEKHKVYACEVTHQGLSSPVTKSFNRGEC
modifications: TB001 heavy chain peptide sequence; TB001 light chain peptide sequence
notes: humanized anti-Gal3 antibody derived from mouse mAb, hIgG4 backbone
- effect on Gal3 block of insulin-stimulated GLUT4 translocation [1]: reduce the ability of Gal3 to block GLUT4 translocation
- change in fasting blood glucose ([2]; compared to PBS): lack of change
- survival ([2]; once weekly, twelve weeks): significantly prolonged survival
- binding to Gal3 peptide 5 (SEQ ID NO: 7) (Human Gal3 peptides): bound
- binding to Gal3 peptide 6 (SEQ ID NO: 8) (Human Gal3 peptides): bound
- blood glucose levels after glucose injection [3]: restoration of blood glucose levels more similar to the PBS injected control mice; also recorded: blood glucose levels similar to PBS injected control mice
- glucose tolerance test (response to glucose challenge) ([4]; 10 mg/kg i.p. twice a week): cleared glucose significantly more rapidly
- insulin tolerance test (glucose reduction after insulin challenge) ([4]; 10 mg/kg i.p. twice a week): glucose clearance indistinguishable from non-diabetic mice fed a normal diet
- body weight gain ([4]; 10 mg/kg i.p. twice a week, 19 day study): did not gain any appreciable weight
- liver steatosis, image quantification ([4]; ImageJ, relative to isotype control): complete reversion of disease state
- liver steatosis, H&E stained sections ([4]; listed as IMT001-4): absence; also recorded: negligible levels of steatosis
- serum liver enzyme ALT levels ([4]; relative to isotype control): significantly decreased
- colon length [5]: restored DSS-induced reduction in the colon length
- circulating IFN-gamma (DSS-induced inflammation) ([5]; 10 mg/kg and 1 mg/kg): reduced DSS-induced inflammation
